# The whole screen tested about 52,000 compounds, of which about 1,700 (3.3%) were called active. No stated cut-off is given here; in the data, active means survival mostly below about 52% (no sharp cut-off); inactive means mostly above about 56%. The list shows a part of the results.
# Test system: Wild type
# Assay: S. aureus survival, RN4220 and DeltatarO strains – OD600, teichoic acid synthesis inhibitors, primary screen (AID 463173)
# Settings: S. aureus RN4220 wild type/DeltatarO growth, OD600, 18 h, active compounds read low, screened at 18.75 µg/mL (by protocol)
row,SMILES,survival
1,CC(=O)c1ccc(N2CCN(c3nc4c(S(=O)(=O)c5ccc(C)c(C)c5)nnn4c4ccc(Cl)cc34)CC2)cc1,inactive: 87%
2,Cc1cc(C)cc(-n2ccnc2SCC(=O)Nc2ccc(C)cc2C)c1,inactive: 127%
3,COc1ccc(-c2cc(C(=O)NCc3ccc(F)cc3)no2)cc1,inactive: 145%
4,O=C(CCCn1c(=O)c2ccccc2n(CC(=O)Nc2cccc(Cl)c2)c1=O)NCc1ccc2c(c1)OCO2,inactive: 88%
5,CCOc1ccc2oc(=O)cc(CN3CCN(Cc4ccc(F)cc4)CC3)c2c1,inactive: 86%
6,CCC(C(=O)Nc1cc(OC)ccc1OC)n1c(=O)c(C(F)(F)F)nc2ccccc21 (stereo not drawn),inactive: 75%
7,CCC(=O)N1CCc2cc(Br)cc(S(=O)(=O)CCC(=O)N3CCN(c4ccc(OC)cc4)CC3)c21,inactive: 66%
8,CC(C)c1ccc(Nc2ncnc3c2nc2n3CCCC2)cc1,inactive: 87%
9,COc1cc(NC(=O)CNC(=O)Cn2ccc3ccccc3c2=O)cc(OC)c1OC,inactive: 130%
10,CCC(=O)Nc1ccccc1-c1nc2ccccc2n(C(C)C(=O)Nc2cccc(Cl)c2C)c1=O (stereo not drawn),inactive: 78%
11,Cc1ccc(Cc2cnc(NC(=O)C3Cc4ccc(C)cc4C(=O)O3)s2)cc1 (stereo not drawn),inactive: 82%
12,COc1ccc(CCNc2nc(-c3ccc(F)cc3)cc(C(F)(F)F)n2)cc1OC,inactive: 142%
13,COc1ccc(C(CNC(=O)c2cccc([N+](=O)[O-])c2)N2CCOCC2)cc1 (stereo not drawn),inactive: 82%
14,COC(=O)c1cnn(-c2ccc(C(=O)Nc3ccc(OC(F)(F)F)cc3)cc2)c1N,inactive: 19%
15,CCc1ccc(NC(=O)CN2CCSc3ccc(S(=O)(=O)N4CCCC4)cc32)cc1,active: -6%
16,CCNS(=O)(=O)c1ccc(S(=O)(=O)N(Cc2ccccn2)C2CCCCC2)cc1,inactive: 107%
17,CCOc1ccc(S(=O)(=O)c2cn(C)c3ccccc3c2=O)cc1,inactive: 81%
18,O=C1C(Cc2ccccc2)S/C(=N/N=C/c2ccco2)N1c1ccccc1 (stereo not drawn),inactive: 108%
19,CC(NC(=O)c1c2c(nc3ccccc13)C(=O)N(C1CCCCC1)C2)c1ccccc1 (stereo not drawn),inactive: 73%
20,Cc1ccc(CNC(=O)Cn2c(=O)ccc3cc(S(=O)(=O)N4CCCC4)ccc32)cc1,inactive: 79%
21,Cc1ccc(NC(=O)CN2C(=O)CCn3nc(-c4cccn4C)cc32)c(Cl)c1,inactive: 111%
22,CCN(C(=O)c1cccn(Cc2ccccc2C)c1=O)c1ccccc1,inactive: 113%
23,CN(C)c1ccc(NC(=O)CN2C(=O)c3ccccc3Sc3ccc(C(=O)N4CCCC4)cc32)cc1,active: -4%

# — PubChem BioAssay AID463173 (ICCB-Longwood Screening Facility, Harvard Medical School, 2010)
